Some of the results follow. At the low end of the ranking, values are background and their order means little.
Target: GST-SBP-SLBP (stem-loop binding protein) (UniProt Q14493)
Assay: targeted RNA Bind-n-Seq;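 further: DESeq read counts versus GST-SBP nonspecific binding control pulldown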
Conditions: RBNS binding buffer: 25 mM Tris pH 7.5, 150 mM KCl, 3 mM MgCl2, 0.1% Tween, 0.5 mg/mL BSA, 1 mM DTT; 27 nM protein, 750 pM RNA pool; temperature not stated; high values mean tight binding

Sequence | binding signal (log2 fold change)
GGUCACGUCUCAAUCAACUCAUCCCCCAGGGAAAGCCCUGGCUAACUCAACAGCUCGCAGUCAAG | -0.0483
GGUCACGUCUCAAUCAACUCAUCCGCAGGAGUUUCCUCCUGGUAAUUCAACAGCUCGCAGUCAAG | 0.119
GGUCACGUCUCAAUCAACUCAAUUUCCAGGGAAAGCCCUGGCGUAUUCAACAGCUCGCAGUCAAG | -0.0156
GGUCACGUCUCAAUCAACUCAUCCUCAGGAGUUUUCUCCUGCUUUUUCAACAGCUCGCAGUCAAG | 0.184
GGUCACGUCUCAAUCAACUCAUCUUCAGGAGUUUCCUCCUGCUAUUUCAACAGCUCGCAGUCAAG | 0.0308
GGUCACGUCUCAAUCAACUCUACUCCCAGGGAAAGCCCUGGCUAUCUCAACAGCUCGCAGUCAAG | 0.0534
GGUCACGUCUCAAUCAACUCAGUCCCAGGAGUUUCCUCCUGCUAAUUCAACAGCUCGCAGUCAAG | -0.075
GGUCACGUCUCAAUCAACUCUUCAGAGGGGGGGAAAACCCCUUUACCCUCCAUGUCAACAGCUCGCAGUCAAG | -0.0562
GGUCACGUCUCAAUCAACUCUACUUCAGGAGUUUCCUCCUGUUAUCUCAACAGCUCGCAGUCAAG | -0.169
GGUCACGUCUCAAUCAACUCAACUCCAGGAGUUUUCUCCUGCAUUCUCAACAGCUCGCAGUCAAG | -0.055
GGUCACGUCUCAAUCAACUCUCUCGAGGGGGGGAAAACCCCUUUACCCUCACACUCAACAGCUCGCAGUCAAG | -0.086
GGUCACGUCUCAAUCAACUCAUCUUCAGGAGUUUUCUCCUGUUAUCUCAACAGCUCGCAGUCAAG | 0.171
GGUCACGUCUCAAUCAACUCCUUAGAGGGGGGGAAAACCCCUUUGCCCUCAUAAUCAACAGCUCGCAGUCAAG | -0.111
GGUCACGUCUCAAUCAACUCAUCUCCAGGAGUUUUCUCCUGUUAAUUCAACAGCUCGCAGUCAAG | 0.0642
GGUCACGUCUCAAUCAACUCUCAAGAGGGGGGGAAAACCCCUUUACCCUCGCCAUCAACAGCUCGCAGUCAAG | -0.025
GGUCACGUCUCAAUCAACUCAUCCUCAGGAGUUUCCUCCUGCUUAGUCAACAGCUCGCAGUCAAG | 0.23
GGUCACGUCUCAAUCAACUCUCUCGAGGGGGGGAAAACCCCUUUACCCUCAUACUCAACAGCUCGCAGUCAAG | 0.145
GGUCACGUCUCAAUCAACUCAUAAGAGGGGGGGAAAACCCCUUUGCCCUCGAAAUCAACAGCUCGCAGUCAAG | 0.269
GGUCACGUCUCAAUCAACUCUUUCUCCAGGGAAAGCCCUGGUAUACUCAACAGCUCGCAGUCAAG | 0.171
GGUCACGUCUCAAUCAACUCUACUCCCAGGGAAAUCCCUGGCAAACUCAACAGCUCGCAGUCAAG | -0.00265
GGUCACGUCUCAAUCAACUCACAAGAGGGGGGGAAAACCCCUUUACCCUCCACAUCAACAGCUCGCAGUCAAG | -0.45
GGUCACGUCUCAAUCAACUCAUACGAGGGGGGGAAAACCCCUUUGCCCUCACAUUCAACAGCUCGCAGUCAAG | -0.0683
GGUCACGUCUCAAUCAACUCUUCCCCAGGAGUUUCCUCCUGCUUAUUCAACAGCUCGCAGUCAAG | 0.115

Sequence | binding signal (log2 fold change)
GGUCACGUCUCAAUCAACUCAUUAGAGGGGGGGAAAACCCCUUUACCCUCCGCAUCAACAGCUCGCAGUCAAG | -0.0861
GGUCACGUCUCAAUCAACUCACUAGAGGGGGGGAAAACCCCUUUGCCCUCAUCUUCAACAGCUCGCAGUCAAG | -0.84
GGUCACGUCUCAAUCAACUCUUUCGAGGGGGGGAAAACCCCUUUACCCUCAUUCUCAACAGCUCGCAGUCAAG | -0.273
GGUCACGUCUCAAUCAACUCCUCCGAGGGGGGGAAAACCCCUUUACCCUCACUAUCAACAGCUCGCAGUCAAG | -0.417
GGUCACGUCUCAAUCAACUCCAUAGAGGGGGGGAAAACCCCUUUGCCCUCACAAUCAACAGCUCGCAGUCAAG | 0.107
GGUCACGUCUCAAUCAACUCUCAAGAGGGGGGGAAAACCCCUUUGCCCUCGUUAUCAACAGCUCGCAGUCAAG | -0.253
GGUCACGUCUCAAUCAACUCAUUUUCAGGAGUUUCCUCCUGUUAUCUCAACAGCUCGCAGUCAAG | 0.0757
GGUCACGUCUCAAUCAACUCUUUCUCAGGAGUUUUCUCCUGUUUACUCAACAGCUCGCAGUCAAG | 0.133
GGUCACGUCUCAAUCAACUCUUCGUCCAGGGAAACCCCUGGCAUAUUCAACAGCUCGCAGUCAAG | -0.151
GGUCACGUCUCAAUCAACUCACUAGAGGGGGGGAAAACCCCUUUACCCUCACUUUCAACAGCUCGCAGUCAAG | 0.242
GGUCACGUCUCAAUCAACUCAAAAGAGGGGGGGAAAACCCCUUUGCCCUCGAUAUCAACAGCUCGCAGUCAAG | 0.336
GGUCACGUCUCAAUCAACUCAUCGUCAGGAGUUUACUCCUGUAUAUUCAACAGCUCGCAGUCAAG | 0.0131
GGUCACGUCUCAAUCAACUCUUCGCCCAGGGAAAUCCCUGGUUUAUUCAACAGCUCGCAGUCAAG | -0.0804
GGUCACGUCUCAAUCAACUCUUUCCCCAGGGAAACCCCUGGCUUACUCAACAGCUCGCAGUCAAG | 0.0124
GGUCACGUCUCAAUCAACUCAUUCUCAGGAGUUUGCUCCUGUUAUUUCAACAGCUCGCAGUCAAG | 0.0173
GGUCACGUCUCAAUCAACUCCCUCGAGGGGGGGAAAACCCCUUUACCCUCUAAAUCAACAGCUCGCAGUCAAG | -0.235
GGUCACGUCUCAAUCAACUCACAAGAGGGGGGGAAAACCCCUUUGCCCUCCAAAUCAACAGCUCGCAGUCAAG | 0.0913
GGUCACGUCUCAAUCAACUCAACGCCAGGAGUUUUCUCCUGCUAUCUCAACAGCUCGCAGUCAAG | 0.202
GGUCACGUCUCAAUCAACUCUUUCUCCAGGGAAACCCCUGGUAAUGUCAACAGCUCGCAGUCAAG | -0.146
GGUCACGUCUCAAUCAACUCUAUCCCAGGAGUUUACUCCUGUAAAUUCAACAGCUCGCAGUCAAG | -0.000911
GGUCACGUCUCAAUCAACUCAACUCCCAGGGAAAUCCCUGGCAUUUUCAACAGCUCGCAGUCAAG | 0.176
GGUCACGUCUCAAUCAACUCCUUAGAGGGGGGGAAAACCCCUUUGCCCUCAGAAUCAACAGCUCGCAGUCAAG | -0.104
GGUCACGUCUCAAUCAACUCAGUCCCCAGGGAAAUCCCUGGCUUUUUCAACAGCUCGCAGUCAAG | -0.0694
